# Measurements as given in PubChem BioAssay AID1508623 (National Center for Advancing Translational Sciences (NCATS), 2021).
# Hit rate of the full screen: of about 48,000 compounds, about 450 (0.94%) were called active. Not shown: some 19% with an inconclusive outcome. The call rests on the fitted dose curve; in most records, active means well fitted inhibition curve with a large enough effect; inconclusive means small, poorly fitted or top-dose-only effect; inactive means no such curve, though single readings can be large or run the other way. The list shows a part of the results.
# Experiment: Primary qHTS for Identification of Small Molecule Inhibitors of Huntingtin Promoter Activity; further: nearly all actives have a fitted effect of over 50% in size
# Details: HEK293 HTT promoter firefly luciferase reporter (activity 0% = vehicle and -100% = no light), 24 h; series mostly up to 57.5 µM; activity change, negative = inhibition: at the top concentration
# Method in brief: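 Quantitative HTS used concentration series of up to 57.5 uM final on HEK293 luciferase reporter cells, 24 h at 37 degrees C. Readout was Dual-Glo firefly luminescence.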
# Potency means the concentration at half of the fitted maximal effect.
Structure (SMILES),"activity change, negative = inhibition",Potency
Cc1ccc2oc(=O)c3cc(C(=O)Nc4ccccc4C(N)=O)sc3c2c1,inactive: -4.8%,
N#CSCC(=O)O,inactive: 3.21%,
Cc1onc(-c2c(F)cccc2Cl)c1C(=O)Nc1ccc(OC(C)C)cc1,inactive: -13.3%,
O=C1CCCc2cc(S(=O)(=O)NCC3CCC(C(=O)NCc4ccccc4Cl)CC3)ccc2N1 (stereo not drawn),inactive: -25.4%,
Cc1cccc(NC(=O)Nc2ccc(Br)cc2)n1,inactive: 47.8%,
COc1ccc(S(=O)(=O)c2c(O)c3ccc(C(=O)NCc4ccccc4)cc3[nH]c2=O)cc1,inactive: -9.95%,
CCOCCCn1c(=N)c(C(=O)NCc2cccnc2)cc2c(=O)n3cc(C)ccc3nc21,inactive: 4.6%,
CCOC(=O)c1cnc2c(ccc3ccccc32)c1Nc1ccc(OCC)cc1,inactive: -20.5%,
CCOc1ccc(Nc2cc(C)nc3nc(Cc4ccc(Cl)cc4)nn23)cc1,inactive: -20.7%,
Cc1ccc(-n2nc3c(N4CCC(C(=O)NC(C)c5ccccc5)CC4)nnc(C)c3c2C)cc1 (stereo not drawn),inactive: -21.9%,
O=C(Cn1ccc2ccccc2c1=O)NCCC(=O)Nc1ccc(F)cc1F,inactive: -21.1%,
COc1ccccc1N1CCN(C(=O)c2c(C)oc3ncn(CC(C)C)c(=O)c23)CC1,inactive: 11%,
O=C(CCCl)NCCc1ccccc1,inactive: 9.45%,
CCN(CC)Cc1c(NC(=O)c2ccc(OC)cc2)sc2c1CCCC2,inactive: -1.06%,
COc1ccc(CCNC(=O)Cn2c(=O)c3cccn3c3ccc(F)cc32)c(OC)c1,inactive: -4.81%,
CC(=O)Nc1ccc(Nc2nc3c(S(=O)(=O)c4cccc(Cl)c4)nnn3c3ccsc23)cc1,inactive: -14.2%,
Cc1oc2ncn(CC(C)C)c(=O)c2c1C(=O)NCCCN1CCC(C)CC1,inactive: 12.9%,
O=C(COc1ccccc1F)OCc1cc(=O)n2nc(C3CC3)sc2n1,inactive: -14.9%,
COc1ccc(-c2cc(C(=O)Oc3cccc(C)c3)c3cc(C)ccc3n2)cc1,inactive: -5.1%,
Cc1ccc(NC(=O)CN2C(=O)CCc3cc(S(=O)(=O)N4CCCCC4)ccc32)cc1C,inactive: -13.6%,
Cc1cc(C)cc(-n2c(C)nc3cc(C(=O)NCc4ccccc4Cl)ccc32)c1,inactive: -0.854%,
COc1cccc(C(=O)Nc2ccc(-n3nncc3-c3ccccc3)cc2)c1,inactive: -13.8%,
CC[C@@H](C)[C@@H](C(=O)Nc1ccc(C)cc1)N1Cc2ccccc2C1=O,inactive: -24.4%,
CCCn1c(=O)c2c(nc3n2CCN3c2ccc(C)cc2)n(C)c1=O,inactive: -0.992%,

Structure (SMILES),"activity change, negative = inhibition",Potency
Cc1ccc(CN(C(=O)COc2ccc(Cl)cc2C)C2CCS(=O)(=O)C2)o1 (stereo not drawn),inactive: -23.1%,
CSc1ccc(C2c3c(oc4cc(C)cc(C)c4c3=O)C(=O)N2CCO)cc1 (stereo not drawn),inactive: 6.85%,
Cc1nc2sc(C(=O)N(C)c3ccccc3)c(NC(=O)c3ccccc3Cl)c2c(C)c1C,inactive: 15.9%,
CCOc1ccc(NC(=O)N(Cc2c[nH]c3ccccc23)C2CCCCCC2)cc1,inactive: 48.1%,
COc1ccc(C2C(C(=O)Nc3ccccc3OC)=C(C)Nc3c(C(=O)Nc4ccccc4)cnn32)c(OC)c1 (stereo not drawn),inactive: -3.81%,
CC(C)CCNC(=O)CCn1c(=O)c2cccn2c2cccnc21,inactive: 2.59%,
COc1cn(CC(=O)Nc2ccccc2)c(CN2CCCCC2)cc1=O,inactive: -7.4%,
CC(=O)c1cccc(NC(=O)C(C)n2c(=O)cc(-c3ccccc3)c3c(C)nn(C)c32)c1 (stereo not drawn),inactive: -6.28%,
COc1cccc(CNC(=O)c2ccc(NC(=O)N3CCCCc4ccccc43)cc2)c1OC,inactive: -15.5%,
CCOc1ccc(-c2cc(-c3nc(-c4ccc(C)cc4)no3)[nH]n2)cc1,inactive: -15%,
CCN1C(=O)c2ccccc2S(=O)(=O)c2ccc(C(=O)NCc3ccccc3Cl)cc21,inactive: -15.2%,
COC(=O)CSc1ncc2c(n1)-c1ccccc1N(Cc1cccc(F)c1)S2(=O)=O,inactive: -17.4%,
O=C(O)CCCCCC(=O)NN=C1CCCC1,inactive: -0.399%,
CCOC(=O)C1CCN(C(=O)CSc2n[nH]c(-c3ccc(F)cc3)n2)CC1,inactive: -3.31%,
COc1cccc(CNC(=O)c2c(C)oc3nc(C)nc(N4CCOCC4)c23)c1,inactive: 3.75%,
CCc1cccc(C)c1NS(=O)(=O)c1c(C)nc2sccn2c1=O,inactive: -9.13%,
O=C(Cn1c(=O)oc2cc(S(=O)(=O)N3CCCC3)ccc21)NCc1ccc(F)cc1,inactive: -30.3%,
Cc1cc(C(=O)C(=O)Nc2nnc(C(C)C)s2)c(C)n1-c1ccccc1,,active: 6.31 µM
Cc1cccc(C(=O)Nc2ccc(OCc3cc(=O)n4ccsc4n3)cc2)c1,inactive: 3.04%,
CCN(CC)S(=O)(=O)c1ccc2c(c1)N(CC(=O)N1CCN(c3ccc(Cl)cc3)CC1)C(=O)CO2,inactive: -14.2%,
O=C(NC1CCCCCC1)C1c2ccccc2C(=O)N1Cc1ccccc1Cl (stereo not drawn),inactive: 0.581%,
O=C(O)[C@@H]1[C@H]2C[C@H]3c4[nH]c5ccccc5c4CCN3C[C@@H]2CC[C@@H]1O,inactive: 2.55%,
CCN1CCN(C(=O)c2ccc3c(c2)N(Cc2ccccc2F)C(=O)c2ccccc2S3=O)CC1 (stereo not drawn),inactive: -4%,
Cc1ccc(-n2c3c(cc(C(=O)Nc4cccc(Cl)c4)c2=O)C(=O)CC(C)(C)C3)cc1,inactive: 4.15%,
